Results on 83 molecules are retold here after ChEMBL document CHEMBL4888484, “Replenishing the malaria drug discovery pipeline: Screening and hit evaluation of the MMV Hit Generation Library 1 (HGL1) against asexual blood stage Plasmodium falciparum ,using a nano luciferase reporter read-out” (2022).

Molecules are shown by their SMILES. About 540 (0.36%) of roughly 150,000 compounds showed an effect of 50% or more. Some of the results follow.

What is called % Inhibition is the change of the read-out against control, counted positive when it falls.

The subject of the assay is Plasmodium falciparum. Description: Primary screen in NF54 nanoGlo assay, in single point, at 2uM, 72h; a lower Z score goes with more inhibition. The assay is classed as functional, Erythrocyte. Particulars: timepoint 72 hour.
As to `CCn1nc(C)c2c(-c3ccccc3)cc(O[C@@H](C)C(=O)NCc3ccco3)nc21`, the “% Inhibition” value is listed as -7% and the Z score turned out to be 0.8.
In the same order, the values of `C[C@H]1CCc2ccccc2N1CC(=O)N1CCc2ccccc21` are -11% and 1.53.
Taken in the same sequence, the figures for `CC1CCC(Oc2cc(CNC(=O)C3CC=CC3)ccn2)CC1` (stereo unspecified) were -7% and 1.44.
Consider `OC[C@@H]1C[C@H](O)CN1Cc1nc2c(F)cccc2[nH]1`, for which the “% Inhibition” value was -11% and the Z score came out at 1.4.
In the case of `CC(C)C[C@H](NC(=O)c1n[nH]c2c1CCCC2)c1nnc2ccccn12`, the “% Inhibition” value was determined as 0% and the Z score was -0.01.
As to `O=C1C[C@]2(CCN(C/C=C/c3ccc(F)cc3)C2)C(=O)N1`, the “% Inhibition” value is -8% and the Z score turned out to be 1.19.
Turning to `Cc1ncoc1C(=O)N1CCO[C@H](C(C)(C)C)CC1`, the “% Inhibition” value is -8% and the Z score turned out to be 1.45.
As for `Cc1cccc(-c2cc(NC(=O)COc3ccc(Cl)cc3)n(-c3ccccc3)n2)c1`, the “% Inhibition” value is on record as -7% and the Z score is 1.03.
Take `CN1CCC[C@H](NC(=O)Nc2nnc(C3CCOCC3)s2)C1=O`: the “% Inhibition” value is 4% and the Z score is -0.83.
In the same order, the values of `CC(C)c1nccc(C[C@@H]2[C@@H](CO)[C@H](O)C[C@H]2NCc2ccc(F)cc2)n1` are 28% and -3.16.
Turning to `O=C1CN(C(=O)CN2CCCCCC2)CCN1CCc1ccccc1`, the “% Inhibition” value is given as -4% and the Z score is reported as 0.93.
For the molecule `Cc1cc2c(cc1S(=O)(=O)N(C)CC(=O)Nc1ccc(Cl)cn1)OCC(=O)N2`, the “% Inhibition” value is recorded as -9% and the Z score worked out at 0.85.
As to `O=C(NC[C@H]1CC2c3ccccc3C1c1ccccc12)c1cnsn1`, the “% Inhibition” value came out at 16% and the Z score is -2.28.
As to `CCC(CC)c1cc(NC(=O)c2cc(C)no2)[nH]n1`, the “% Inhibition” value came to 31% and the Z score was -3.53.
Take `CCCn1cc(S(=O)(=O)NCc2ccc(C)cc2)c2cccnc21`: the “% Inhibition” value is recorded as -5% and the Z score is recorded as 0.93.
As for `C[C@@H]1Oc2ccc(NC(=O)Cn3cccn3)cc2NC1=O`, the “% Inhibition” value is on record as 8% and the Z score is on record as -0.91.
For the molecule `Cc1ccc(C(=O)N2CCCC[C@H]2c2nc(-c3ccncc3)no2)s1`, the “% Inhibition” value is reported as -21% and the Z score worked out at 2.2.
As to `CCCCNC(=O)c1ccc2c(c1)nc(C1CCN(S(=O)(=O)c3ccc(C)cc3)CC1)n2C1CCCCC1`, the “% Inhibition” value is 10% and the Z score is recorded as -1.56.
As for `N#C[C@H]1CCCN(C(=O)c2cccc(-c3ccncc3F)c2)C1`, the “% Inhibition” value was -17% and the Z score is recorded as 1.81.
For `COc1cccc(C(=O)O[C@@H](C)C(=O)Nc2cc(C)no2)c1O`, the “% Inhibition” value was -4% and the Z score worked out at 0.53.
For `COC1C2CC3CN(S(=O)(=O)C4CCOC4C)C1C3C2` (stereo unspecified), the “% Inhibition” value is -13% and the Z score was 1.15.
In the same order, the values of `O=C1C2C3c4ccccc4C(c4ccccc43)[C@@H]2C(=O)N1Cc1ccc(F)cc1` (stereo partly specified) are -8% and 1.
For the molecule `O=C(NCCOCC1CC1)N1CC2CC=CCC2C1` (stereo unspecified), the “% Inhibition” value is given as -13% and the Z score was determined as 1.92.
As for `Fc1ccccc1CN1CCC(COCc2ccccc2)CC1`, the “% Inhibition” value is recorded as -15% and the Z score is given as 1.67.
Take `CCn1ccnc1CNCCCNc1ncccn1`: the “% Inhibition” value is given as -6% and the Z score is on record as 0.63.
For the molecule `CCc1ccccc1C(=O)OCc1nccn1C`, the “% Inhibition” value was -3% and the Z score is reported as 0.26.
Take `CN(C)C(=O)CCc1nc(COc2ccc(C(C)(C)C)cc2)n[nH]1`: the “% Inhibition” value came out at 2% and the Z score is listed as -0.3.
For the molecule `CNc1ccccc1CN[C@H]1CCO[C@@H]1c1ccnn1-c1ccccc1`, the “% Inhibition” value was 7% and the Z score is -1.29.
Take `Cc1cc(C(=O)Nc2cccc3ccccc23)cc2c1N(C)S(=O)(=O)c1ccccc1-2`: the “% Inhibition” value is given as 9% and the Z score was -1.08.
Consider `CCN1Cc2nc(OC)c(CNC(=O)c3cccc(-c4nc[nH]n4)c3)cc2C1=O`, for which the “% Inhibition” value is listed as -6% and the Z score is given as 1.09.
Regarding `CN1Cc2c(NC(=O)N3CCCC34CCC4)cccc2C1=O`, the “% Inhibition” value is 1% and the Z score was -0.23.
In the same order, the values of `CCC1CCCCN1CN1C(=O)C2CC=CCC2C1=O` (stereo unspecified) are 1% and -0.09.
As to `CCN1C(=O)COc2ccc(-c3noc([C@H]4CC(=O)N(c5ccc(OC)cc5)C4)n3)cc21`, the “% Inhibition” value is -10% and the Z score is recorded as 1.13.
In the same order, the values of `CC(C)(C)c1nnc2n1CCN(C(=O)N[C@H]1CCCCC1(C)C)C2` are -2% and 0.15.
As to `Cc1nn(-c2nc3ccccc3s2)c2nc(-c3cccnc3)cc(C(F)(F)F)c12`, the “% Inhibition” value was 2% and the Z score is given as -0.24.
For `CCCS(=O)(=O)NC(=O)Cc1ccccc1F`, the “% Inhibition” value is listed as 3% and the Z score is recorded as -0.54.
For the molecule `COc1ccc([C@H]2C[C@@H](O)[C@@H](O)[C@@H]2NC(=O)c2ccc(C(F)(F)F)cc2)cc1`, the “% Inhibition” value was 15% and the Z score is -1.78.
In the same order, the values of `O=C1NCCN(C(=O)NC2(C3CCCCC3)CC2)[C@H]1c1ccc(F)cc1` are -3% and 0.71.
`Cc1ccc(N2CCCN(Cc3ccc(OC(F)(F)F)cc3)C2=O)c(NC(=O)c2ccc(Cl)cc2)c1`: the “% Inhibition” value is given as -12% and the Z score was found to be 1.77.
In the same order, the values of `CCCN(Cc1sc(C)nc1C)S(=O)(=O)N1CCCCC1` are -9% and 0.77.
For the molecule `NC(=O)C1CCN(C2CN(C(=O)CCc3ccc(Br)cc3)C2)CC1`, the “% Inhibition” value is on record as -6% and the Z score was 0.88.
Taken in the same sequence, the figures for `CC(C)(C)c1ccn(C2(C(=O)O)CCN(C(=O)[C@H]3CC34CCC4)CC2)n1` were -13% and 2.5.
In the same order, the values of `CCc1nc2c(N3CC[C@@H](CO)[C@@H](O)C3)ncnc2o1` are -9% and 1.43.
Turning to `Cc1ccncc1C(=O)N1C[C@H](C)C[C@H](O)C1`, the “% Inhibition” value is on record as 10% and the Z score was -0.8.
Taken in the same sequence, the figures for `CCN(C)CC(=O)N1CCC2(CCC(=O)N(Cc3cccnc3)C2)CC1` were -3% and 0.56.
Consider `CC1CCC(C)N1C(C)C(=O)Nc1cc(-c2nccn2C)n[nH]1` (stereo unspecified), for which the “% Inhibition” value is on record as 2% and the Z score is given as -0.17.
Taken in the same sequence, the figures for `O=C(CCc1c[nH]cn1)N1CCCCCO1` were 18% and -2.27.
Taken in the same sequence, the figures for `CCC[C@H]1C=CCN1C(=O)c1cn2cc(Cl)cnc2n1` were -18% and 2.01.
For `Cc1ccc(CCNC(=O)N2CCC(C)CC2C)cn1` (stereo unspecified), the “% Inhibition” value stood at 2% and the Z score was -0.35.
Taken in the same sequence, the figures for `CCc1ccccc1N1CCN(S(=O)(=O)CC23CCC(CC2=O)C3(C)C)CC1` (stereo unspecified) were 0% and 0.01.
For the molecule `O[C@H]1CCCN(c2ccnc(NCC3(Cn4ccnc4)CC3)n2)C1`, the “% Inhibition” value is reported as 9% and the Z score is -1.19.
Consider `O=C1C2N=NN(c3ccc(F)c(Cl)c3)C2C(=O)N1c1ccc2c(c1)CCC2` (stereo unspecified), for which the “% Inhibition” value is reported as -9% and the Z score came out at 1.02.
Regarding `O=C(Nc1ccncn1)NC1(C(F)(F)F)CCCCC1`, the “% Inhibition” value came to 0% and the Z score is listed as -0.01.
In the same order, the values of `CCn1ncc(C)c1NC(=O)C[C@H]1C(=O)NCCN1Cc1ccccc1` are -6% and 0.99.
`CCc1ccc(C(=O)N(CCOC)Cc2c(C)nn(-c3cccc(F)c3)c2N2CCN(CC)CC2)cc1`: the “% Inhibition” value was found to be 5% and the Z score is reported as -0.6.
For `COc1ccc(OC)c(C(=O)N2CCN(C[C@H]3CCCCN3C)CC2)c1`, the “% Inhibition” value is reported as -7% and the Z score stood at 0.91.
On to `Cc1c(S(=O)(=O)c2ccc(F)cc2)c(N)n(C2CCCCC2)c1C`, for which the “% Inhibition” value is given as -2% and the Z score amounted to 0.26.
In the same order, the values of `CN(Cc1ccccc1NCc1nc(=O)[nH][nH]1)C(=O)c1cccs1` are -5% and 0.92.
Regarding `Cc1ccc(C(=O)N2CCOC[C@@H](CN(C)C)C2)n1C(F)F`, the “% Inhibition” value is listed as 0% and the Z score amounted to 0.03.
Taken in the same sequence, the figures for `CN1CCN(C[C@H]2CCCN(c3c(Cl)cccc3C#N)C2)CC1` were -10% and 0.87.
Taken in the same sequence, the figures for `O=C(N[C@H]1CCN(C(=O)C2CCC2)C1)C1CCCC1` were -4% and 0.6.
Consider `CN1CCc2ncnc(NCc3nc4c(F)c(F)ccc4[nH]3)c2C1`, for which the “% Inhibition” value is reported as -5% and the Z score was 1.11.
Taken in the same sequence, the figures for `CC[C@H](C)NC(=O)CCNCC1CCCCCC1` were -6% and 0.87.
Taken in the same sequence, the figures for `CNCc1cccc(NC(=O)c2ccc(C)nc2C2CC2)c1` were 2% and -0.32.
In the same order, the values of `CCn1cc(S(=O)(=O)N2CCC3(CC2)CN(C(C)C)[C@@H]3c2ccccc2)cn1` are 3% and -0.47.
Consider `COc1ccc(-c2c3c(=O)n(C)c(=O)n(C)c3c3n2C(C)(C)CO[C@@H]3c2ccc(Cl)cc2)cc1`, for which the “% Inhibition” value was determined as 0% and the Z score is reported as -0.05.
Consider `O=C(NCC(=O)N1CCCC1)c1ccc(N2CCCC2)nc1`, for which the “% Inhibition” value is -8% and the Z score is listed as 1.11.
On to `Cc1ccccc1Cn1ncnc1[C@H]1CCCN(C(C)C)C1`, for which the “% Inhibition” value turned out to be 8% and the Z score is listed as -1.11.
In the same order, the values of `COc1cccc(CN(C)Cc2cnn(C(C)C)c2)n1` are -4% and 0.44.
Regarding `COc1ccc(C(O)CN2CCC(c3ccccc3)C2)cc1F` (stereo unspecified), the “% Inhibition” value amounted to 36% and the Z score is recorded as -2.43.
In the same order, the values of `CCc1ncc(NC(=O)N2CCC(CCN3CCCC[C@@H]3C)CC2)cn1` are 8% and -1.64.
Consider `COc1ccc([C@@H]2C=C(c3ccccc3)Nc3nc(NS(=O)(=O)c4ccc(C)cc4)nn32)cc1`, for which the “% Inhibition” value was determined as 9% and the Z score is given as -1.14.
In the same order, the values of `CCN1C(=O)C[C@H](N(C)CC(=O)Nc2c(C)cc(C)cc2C)C1=O` are 1% and -0.22.
Regarding `Cc1ccc(C(C)(C)CN(C)Cc2nsc(N(C)C)n2)cc1`, the “% Inhibition” value is -16% and the Z score was 2.95.
Regarding `COc1ccccc1CCN1C(=O)c2ccccc2N[C@]12C(=O)N(C)c1ccccc12`, the “% Inhibition” value is -8% and the Z score is on record as 0.99.
Consider `O=C(Nc1nc(CC(=O)N2CCOCC2)cs1)c1ccco1`, for which the “% Inhibition” value is -13% and the Z score is 1.47.
As to `CCn1c(CC2CCNCC2)nn(Cc2noc(-c3ccccc3)n2)c1=O`, the “% Inhibition” value is -10% and the Z score was determined as 1.92.
`Clc1cc(N2CCOCC2)c2nonc2c1`: the “% Inhibition” value is listed as -8% and the Z score amounted to 1.28.
In the same order, the values of `O=C(NCc1cnc2cnccn12)c1conc1-c1ccccc1` are -11% and 2.08.
Take `CCc1noc(-c2cnc3nc(C)ccc3c2NCC(C)C)n1`: the “% Inhibition” value was -9% and the Z score amounted to 1.07.
In the same order, the values of `COc1cccc(CN2CCC[C@H](n3cc(C)cn3)C2)c1F` are 9% and -1.17.
Take `CC1(C)C[C@@](C)(c2ccc(Br)cc2)c2ccccc2N1C(=O)c1ccccc1`: the “% Inhibition” value came out at 4% and the Z score is -0.5.
Taken in the same sequence, the figures for `CCCN1C(=O)c2cc(C(=O)Nc3ccc(OC)c(OC)c3)ccc2[C@H]1Nc1ccc(OC)c(OC)c1` were -13% and 1.73.
